Experimental data taken from article PMC5892938.
Some of the results follow. At the low end of the ranking, values are background and their order means little.

molecular target: GST-SBP-SLBP (stem-loop binding protein) (UniProt Q14493); test: targeted RNA Bind-n-Seq; details: RBNS binding buffer: 25 mM Tris pH 7.5, 150 mM KCl, 3 mM MgCl2, 0.1% Tween, 0.5 mg/mL BSA, 1 mM DTT; 27 nM protein, 750 pM RNA pool; temperature not stated; high values mean tight binding;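 note: DESeq read counts versus GST-SBP nonspecific binding control pulldown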

Row | Sequence | binding signal (log2 fold change)
1 | GGUCACGUCUCAAUCAACUCUUUUUCAGGAGUUUUCUCCUGUUUUUUCAACAGCUCGCAGUCAAG | -0.0431
2 | GGUCACGUCUCAAUCAACUCAACUUCCAGGGAAAUCCCUGGUAAACUCAACAGCUCGCAGUCAAG | -0.251
3 | GGUCACGUCUCAAUCAACUCAAUAGAGGGGGGGAAAACCCCUUUACCCUCAAUCUCAACAGCUCGCAGUCAAG | -0.088
4 | GGUCACGUCUCAAUCAACUCUACUUCAGGAGUUUUCUCCUGCUAAUUCAACAGCUCGCAGUCAAG | -0.17
5 | GGUCACGUCUCAAUCAACUCAUUUCCAGGAGUUUCCUCCUGCUAUCUCAACAGCUCGCAGUCAAG | 0.149
6 | GGUCACGUCUCAAUCAACUCAACGCCAGGAGUUUUCUCCUGCUAAUUCAACAGCUCGCAGUCAAG | -0.0133
7 | GGUCACGUCUCAAUCAACUCUAUCUCCAGGGAAAACCCUGGCUUUUUCAACAGCUCGCAGUCAAG | -0.176
8 | GGUCACGUCUCAAUCAACUCAUUUCCCAGGGAAAACCCUGGCAUUCUCAACAGCUCGCAGUCAAG | 0.167
9 | GGUCACGUCUCAAUCAACUCUUCUCCCAGGGAAAACCCUGGCAAUCUCAACAGCUCGCAGUCAAG | -0.0664
10 | GGUCACGUCUCAAUCAACUCUUUAGAGGGGGGGAAAACCCCUUUGCCCUCGUCAUCAACAGCUCGCAGUCAAG | -0.128
11 | GGUCACGUCUCAAUCAACUCAUCUCCAGGAGUUUUCUCCUGCAAACUCAACAGCUCGCAGUCAAG | 0.16
12 | GGUCACGUCUCAAUCAACUCCCUAGAGGGGGGGAAAACCCCUUUGCCCUCGUCAUCAACAGCUCGCAGUCAAG | -0.457
13 | GGUCACGUCUCAAUCAACUCUACUUCCAGGGAAACCCCUGGCUUAUUCAACAGCUCGCAGUCAAG | 0.218
14 | GGUCACGUCUCAAUCAACUCAUUUUCCAGGGAAAUCCCUGGUAUACUCAACAGCUCGCAGUCAAG | 0.0805
15 | GGUCACGUCUCAAUCAACUCAUCCCCCAGGGAAAUCCCUGGCAAUUUCAACAGCUCGCAGUCAAG | 0.00128
16 | GGUCACGUCUCAAUCAACUCAUUUCCAGGAGUUUCCUCCUGCUAUUUCAACAGCUCGCAGUCAAG | 0.0758
17 | GGUCACGUCUCAAUCAACUCUCAAGAGGGGGGGAAAACCCCUUUACCCUCAUUCUCAACAGCUCGCAGUCAAG | 0.271
18 | GGUCACGUCUCAAUCAACUCUUAAGAGGGGGGGAAAACCCCUUUGCCCUCAUACUCAACAGCUCGCAGUCAAG | 0.174
19 | GGUCACGUCUCAAUCAACUCUUCUUCAGGAGUUUACUCCUGUUAAUUCAACAGCUCGCAGUCAAG | 0.15
20 | GGUCACGUCUCAAUCAACUCUCAAGAGGGGGGGAAAACCCCUUUACCCUCAUACUCAACAGCUCGCAGUCAAG | -0.172
21 | GGUCACGUCUCAAUCAACUCUUCUCCCAGGGAAAACCCUGGUAUACUCAACAGCUCGCAGUCAAG | -0.175
22 | GGUCACGUCUCAAUCAACUCCCCAGAGGGGGGGAAAACCCCUUUACCCUCAUCUUCAACAGCUCGCAGUCAAG | -0.195
23 | GGUCACGUCUCAAUCAACUCACACGAGGGGGGGAAAACCCCUUUACCCUCCAAAUCAACAGCUCGCAGUCAAG | -0.33
24 | GGUCACGUCUCAAUCAACUCUUUUUCCAGGGAAAACCCUGGCUUACUCAACAGCUCGCAGUCAAG | 0.296
25 | GGUCACGUCUCAAUCAACUCUUUUCCCAGGGAAACCCCUGGCAUUUUCAACAGCUCGCAGUCAAG | -0.108

Row | Sequence | binding signal (log2 fold change)
26 | GGUCACGUCUCAAUCAACUCAUUCUCAGGAGUUUCCUCCUGCAUACUCAACAGCUCGCAGUCAAG | -0.00799
27 | GGUCACGUCUCAAUCAACUCAACUUCCAGGGAAACCCCUGGUUAAUUCAACAGCUCGCAGUCAAG | -0.289
28 | GGUCACGUCUCAAUCAACUCAUCGCCAGGAGUUUUCUCCUGUAAACUCAACAGCUCGCAGUCAAG | -0.0203
29 | GGUCACGUCUCAAUCAACUCCAUGGAGGGGGGGAAAACCCCUUUACCCUCAUCUUCAACAGCUCGCAGUCAAG | -0.353
30 | GGUCACGUCUCAAUCAACUCAAUUCCCAGGGAAACCCCUGGCAUAGUCAACAGCUCGCAGUCAAG | 0.0706
31 | GGUCACGUCUCAAUCAACUCGCAAGAGGGGGGGAAAACCCCUUUACCCUCCACAUCAACAGCUCGCAGUCAAG | 0.262
32 | GGUCACGUCUCAAUCAACUCUUCUUCAGGAGUUUCCUCCUGUAAUCUCAACAGCUCGCAGUCAAG | 0.115
33 | GGUCACGUCUCAAUCAACUCUUCUCCAGGAGUUUACUCCUGCAUUCUCAACAGCUCGCAGUCAAG | 0.0235
34 | GGUCACGUCUCAAUCAACUCUUUCCCCAGGGAAACCCCUGGUAAACUCAACAGCUCGCAGUCAAG | 0.0259
35 | GGUCACGUCUCAAUCAACUCAAUCUCAGGAGUUUUCUCCUGCUAUCUCAACAGCUCGCAGUCAAG | -0.0427
36 | GGUCACGUCUCAAUCAACUCUUAAGAGGGGGGGAAAACCCCUUUACCCUCGUCCUCAACAGCUCGCAGUCAAG | -0.0547
37 | GGUCACGUCUCAAUCAACUCAGUCCCAGGAGUUUUCUCCUGUUAUUUCAACAGCUCGCAGUCAAG | 0.0926
38 | GGUCACGUCUCAAUCAACUCUCAAGAGGGGGGGAAAACCCCUUUACCCUCAUUAUCAACAGCUCGCAGUCAAG | 0.622
39 | GGUCACGUCUCAAUCAACUCAUUCCCCAGGGAAACCCCUGGUUAUUUCAACAGCUCGCAGUCAAG | -0.127
40 | GGUCACGUCUCAAUCAACUCAGUUCCCAGGGAAACCCCUGGCAUUUUCAACAGCUCGCAGUCAAG | 0.00216
41 | GGUCACGUCUCAAUCAACUCAAUCUCAGGAGUUUUCUCCUGCAUAGUCAACAGCUCGCAGUCAAG | 0.0697
42 | GGUCACGUCUCAAUCAACUCUUUCCCAGGAGUUUCCUCCUGCAAUUUCAACAGCUCGCAGUCAAG | -0.0135
43 | GGUCACGUCUCAAUCAACUCCUACGAGGGGGGGAAAACCCCUUUACCCUCUACAUCAACAGCUCGCAGUCAAG | -0.274
44 | GGUCACGUCUCAAUCAACUCAAUUUCAGGAGUUUACUCCUGUUUAUUCAACAGCUCGCAGUCAAG | -0.0625
45 | GGUCACGUCUCAAUCAACUCUUAAGAGGGGGGGAAAACCCCUUUGCCCUCGUCAUCAACAGCUCGCAGUCAAG | -0.0599
46 | GGUCACGUCUCAAUCAACUCAUCGUCCAGGGAAAGCCCUGGUAAUUUCAACAGCUCGCAGUCAAG | -0.225
47 | GGUCACGUCUCAAUCAACUCAGUCCCCAGGGAAAUCCCUGGCUUAUUCAACAGCUCGCAGUCAAG | 0.119
48 | GGUCACGUCUCAAUCAACUCCUUAGAGGGGGGGAAAACCCCUUUACCCUCCGUUUCAACAGCUCGCAGUCAAG | -0.0943
49 | GGUCACGUCUCAAUCAACUCUUCUCCAGGAGUUUUCUCCUGUAAACUCAACAGCUCGCAGUCAAG | -0.118
50 | GGUCACGUCUCAAUCAACUCUAUCCCAGGAGUUUUCUCCUGUUAUCUCAACAGCUCGCAGUCAAG | 0.083

Row | Sequence | binding signal (log2 fold change)
51 | GGUCACGUCUCAAUCAACUCAGUCCCAGGAGUUUUCUCCUGCUUAUUCAACAGCUCGCAGUCAAG | -0.076
52 | GGUCACGUCUCAAUCAACUCAAUAGAGGGGGGGAAAACCCCUUUGCCCUCCAACUCAACAGCUCGCAGUCAAG | -0.427
53 | GGUCACGUCUCAAUCAACUCAUCCCCAGGAGUUUCCUCCUGCUUUUUCAACAGCUCGCAGUCAAG | 0.121
54 | GGUCACGUCUCAAUCAACUCAUCCCCCAGGGAAACCCCUGGUUUACUCAACAGCUCGCAGUCAAG | 0.0898
55 | GGUCACGUCUCAAUCAACUCAUCGUCAGGAGUUUACUCCUGCAUUUUCAACAGCUCGCAGUCAAG | -0.158
56 | GGUCACGUCUCAAUCAACUCAUCCCCAGGAGUUUUCUCCUGUUAUUUCAACAGCUCGCAGUCAAG | -0.028
57 | GGUCACGUCUCAAUCAACUCAUCUCCCAGGGAAAGCCCUGGCUUAUUCAACAGCUCGCAGUCAAG | -0.15
58 | GGUCACGUCUCAAUCAACUCAUCUCCCAGGGAAACCCCUGGUAUAUUCAACAGCUCGCAGUCAAG | -0.0789
59 | GGUCACGUCUCAAUCAACUCUUCUUCAGGAGUUUACUCCUGCUUAUUCAACAGCUCGCAGUCAAG | 0.0225
60 | GGUCACGUCUCAAUCAACUCAACUUCCAGGGAAACCCCUGGCUAAUUCAACAGCUCGCAGUCAAG | -0.156
61 | GGUCACGUCUCAAUCAACUCAUCCCCCAGGGAAAACCCUGGCAUUUUCAACAGCUCGCAGUCAAG | -0.156
62 | GGUCACGUCUCAAUCAACUCUACUCCAGGAGUUUUCUCCUGUUAUUUCAACAGCUCGCAGUCAAG | 0.0218
63 | GGUCACGUCUCAAUCAACUCUUUUCCAGGAGUUUUCUCCUGCUUUUUCAACAGCUCGCAGUCAAG | 0.0159
64 | GGUCACGUCUCAAUCAACUCAUUUCCCAGGGAAACCCCUGGCUAACUCAACAGCUCGCAGUCAAG | -0.0352
65 | GGUCACGUCUCAAUCAACUCAUCCCCCAGGGAAAGCCCUGGCAUUUUCAACAGCUCGCAGUCAAG | -0.17
66 | GGUCACGUCUCAAUCAACUCAUCCCCAGGAGUUUCCUCCUGCUUACUCAACAGCUCGCAGUCAAG | 0.00707
67 | GGUCACGUCUCAAUCAACUCACAAGAGGGGGGGAAAACCCCUUUACCCUCCAAAUCAACAGCUCGCAGUCAAG | -0.626
68 | GGUCACGUCUCAAUCAACUCCCACGAGGGGGGGAAAACCCCUUUACCCUCACAAUCAACAGCUCGCAGUCAAG | -0.443
69 | GGUCACGUCUCAAUCAACUCUUUUCCCAGGGAAAACCCUGGCUUUCUCAACAGCUCGCAGUCAAG | -0.0313
70 | GGUCACGUCUCAAUCAACUCAUCUGAGGGGGGGAAAACCCCUUUACCCUCCAUAUCAACAGCUCGCAGUCAAG | 0.0956
71 | GGUCACGUCUCAAUCAACUCUCUCGAGGGGGGGAAAACCCCUUUACCCUCUAUAUCAACAGCUCGCAGUCAAG | -0.0714
72 | GGUCACGUCUCAAUCAACUCUACUCCCAGGGAAAACCCUGGUUAAUUCAACAGCUCGCAGUCAAG | 0.181
73 | GGUCACGUCUCAAUCAACUCUUUUUCCAGGGAAAUCCCUGGUUAUCUCAACAGCUCGCAGUCAAG | -0.085
74 | GGUCACGUCUCAAUCAACUCAUUUUCCAGGGAAACCCCUGGCUAACUCAACAGCUCGCAGUCAAG | -0.0824
